Results from paper PMC4336329 (PLoS ONE, 2015).
About 2,200 (0.71%) of roughly 310,000 compounds showed an effect of 50% or more. The effect is printed as a negative number. Some of the results follow.

What follows are compounds tested against human ether-à-go-go-related gene (hERG) potassium channel (human, UniProt Q12809) (assay: primary screen, population patch clamp on CHO cells stably expressing hERG).
Sequence of human ether-à-go-go-related gene (hERG) potassium channel (Q12809 whole entry, looked up): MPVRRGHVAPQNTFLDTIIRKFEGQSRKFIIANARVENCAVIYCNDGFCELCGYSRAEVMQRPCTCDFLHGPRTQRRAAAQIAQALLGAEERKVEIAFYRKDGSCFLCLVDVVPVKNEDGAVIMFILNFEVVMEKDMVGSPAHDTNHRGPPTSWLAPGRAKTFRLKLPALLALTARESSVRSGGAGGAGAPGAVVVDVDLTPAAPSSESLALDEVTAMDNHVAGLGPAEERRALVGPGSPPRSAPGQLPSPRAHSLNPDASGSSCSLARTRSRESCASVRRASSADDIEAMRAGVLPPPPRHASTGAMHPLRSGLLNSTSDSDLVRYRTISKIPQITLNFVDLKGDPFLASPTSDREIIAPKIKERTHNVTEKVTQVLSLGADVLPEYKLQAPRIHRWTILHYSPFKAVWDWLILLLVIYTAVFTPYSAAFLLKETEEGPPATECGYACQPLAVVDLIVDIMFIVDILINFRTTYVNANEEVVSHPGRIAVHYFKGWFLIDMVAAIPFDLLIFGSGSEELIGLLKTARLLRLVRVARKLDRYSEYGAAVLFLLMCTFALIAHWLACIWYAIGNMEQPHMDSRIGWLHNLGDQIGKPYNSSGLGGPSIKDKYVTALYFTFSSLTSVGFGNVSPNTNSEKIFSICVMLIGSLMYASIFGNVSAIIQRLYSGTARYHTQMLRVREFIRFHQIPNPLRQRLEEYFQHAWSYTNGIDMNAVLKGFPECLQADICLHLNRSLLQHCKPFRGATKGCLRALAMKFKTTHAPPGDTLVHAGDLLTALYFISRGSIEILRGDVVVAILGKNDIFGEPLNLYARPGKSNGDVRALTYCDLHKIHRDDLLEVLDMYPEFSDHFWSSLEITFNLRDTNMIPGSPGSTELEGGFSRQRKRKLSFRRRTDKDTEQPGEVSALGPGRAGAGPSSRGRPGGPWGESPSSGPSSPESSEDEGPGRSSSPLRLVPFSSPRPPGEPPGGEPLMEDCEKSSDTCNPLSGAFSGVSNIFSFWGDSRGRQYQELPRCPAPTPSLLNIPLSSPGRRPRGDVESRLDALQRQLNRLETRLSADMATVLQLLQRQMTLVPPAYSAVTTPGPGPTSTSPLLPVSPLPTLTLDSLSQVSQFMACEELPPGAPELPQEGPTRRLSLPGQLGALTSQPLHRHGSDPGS
For CCc1ccc(NC(=O)NCc2ccccn2)cc1, the “hERG current change (%, negative = inhibition) at 1uM” value was 5.57%. With N#Cc1c(N2CCCCC2)nc(N)c2c(N)nc(SCC(=O)O)cc12 the “hERG current change (%, negative = inhibition) at 1uM” value was 8.09%. With O=C(Nc1ccc2c(c1)OCO2)C(c1ccc(Cl)cc1)N1CCN(C(=O)c2ccco2)CC1 (stereo not shown) the “hERG current change (%, negative = inhibition) at 1uM” value was -2.42%. For COc1ccc(/C=C(\NC(=O)c2ccccc2)C(=O)NCc2ccco2)cc1OC, the “hERG current change (%, negative = inhibition) at 1uM” value was 16.6%. CC(NC(=O)c1ccccc1Br)c1nnc(SCC(=O)NC2CCCCC2)n1C (stereo not shown) was tested, and the “hERG current change (%, negative = inhibition) at 1uM” value was 5.31%. Cc1nnc(SCC(=O)N2CC(=O)Nc3ccccc32)n1Cc1ccccc1 was tested, and the “hERG current change (%, negative = inhibition) at 1uM” value was 0.0402%. In the case of Cc1oc(C(C)(C)C)cc1C(=O)NC1CCN(Cc2ccccc2)CC1, the “hERG current change (%, negative = inhibition) at 1uM” value is reported as 3.76%. For N#CC1=C(N)C(C#N)(C#N)C2(C(=O)Nc3ccccc32)C2CCCC=C12 (stereo not shown), the “hERG current change (%, negative = inhibition) at 1uM” value was 11%. For COc1ccc(NC2=NCCC2)cc1, the “hERG current change (%, negative = inhibition) at 1uM” value was 8.02%. COc1ccnc(Oc2ccccc2)n1 was tested, and the “hERG current change (%, negative = inhibition) at 1uM” value was 8.18%. With COc1ccc(N(C(=O)c2csnn2)C(C(=O)NC2CCCC2)c2ccccc2)cc1 (stereo not shown) the “hERG current change (%, negative = inhibition) at 1uM” value was 1.22%. With Cc1nc2ccc(NC(=O)c3sccc3C)cc2s1 the “hERG current change (%, negative = inhibition) at 1uM” value was 3.32%. For CCc1ccc(OCC(=O)O/N=C(\N)Cc2ccc([N+](=O)[O-])cc2)cc1, the “hERG current change (%, negative = inhibition) at 1uM” value was -9.98%. In the case of Fc1ccc(SCCc2ccncc2)cc1, the “hERG current change (%, negative = inhibition) at 1uM” value is reported as -1%. COc1ccc(CN(C)C(=O)C2CSC3(C)CCC(=O)N23)cc1OC (stereo not shown) was tested, and the “hERG current change (%, negative = inhibition) at 1uM” value was 13.3%. In the case of CCc1cccc(C)c1NS(=O)(=O)c1cccs1, the “hERG current change (%, negative = inhibition) at 1uM” value is reported as 3.86%. With CS(=O)(=O)c1ccc(NC(=O)c2cccc(-n3cnnn3)c2)cc1 the “hERG current change (%, negative = inhibition) at 1uM” value was 14.8%. With COc1ccc(C2=NOC(C(=O)NC(C)C)C2)cc1 (stereo not shown) the “hERG current change (%, negative = inhibition) at 1uM” value was 19.2%. With CCOC(=O)CN(C(=O)CN1CCOCC1)c1ccc(Br)cc1 the “hERG current change (%, negative = inhibition) at 1uM” value was -5.97%. In the case of Cc1nn(CCCC(=O)NCCc2ccccc2)c(=O)c2nn(-c3ccccc3)c(C)c12, the “hERG current change (%, negative = inhibition) at 1uM” value is reported as 9.68%. For Cc1cc(C)cc(C(=O)NCC(=O)NNC(=O)CSc2ccccc2F)c1, the “hERG current change (%, negative = inhibition) at 1uM” value was 14.5%. For Cc1ccc(C(=O)Nc2ccc(C(=O)N/N=C/c3ccc(C)o3)cc2)cc1, the “hERG current change (%, negative = inhibition) at 1uM” value was 12.1%. For Cc1ccc(S(=O)(=O)CC(=O)NC(C)c2ccccc2)cc1 (stereo not shown), the “hERG current change (%, negative = inhibition) at 1uM” value was 7.07%. Cc1nc2ccc(NC(=O)c3ccc(S(=O)(=O)N4CCOCC4)cc3)cc2s1 was tested, and the “hERG current change (%, negative = inhibition) at 1uM” value was -3.72%. Cc1ccc(C(C(=O)NC2CCCC2)N2CCc3ccccc32)cc1 (stereo not shown) was tested, and the “hERG current change (%, negative = inhibition) at 1uM” value was 10.6%. Cc1cccc(C(=O)NCC(=O)OCC(=O)N(C)CC(=O)Nc2ccc(F)cc2)c1 was tested, and the “hERG current change (%, negative = inhibition) at 1uM” value was 11%. For CCCCC1(C)NC(=O)N(CC(=O)Nc2ccc(S(=O)(=O)N3CCOCC3)cc2)C1=O (stereo not shown), the “hERG current change (%, negative = inhibition) at 1uM” value was 10.5%. In the case of Cc1cccc(NC(=O)CSc2nc(C)c(Cc3ccccc3)c(=O)[nH]2)c1C, the “hERG current change (%, negative = inhibition) at 1uM” value is reported as 13.5%. COc1ccc(NC(=S)N(CCc2c(C)[nH]c3ccc(C)cc23)Cc2cccs2)cc1 was tested, and the “hERG current change (%, negative = inhibition) at 1uM” value was 9.22%. O=C(CN1CCC(C(=O)O)CC1)Nc1ccccc1Oc1ccccc1 was tested, and the “hERG current change (%, negative = inhibition) at 1uM” value was 16.1%. COc1ccc(NC2=CC(=O)CC(C)(C)C2)cc1OC was tested, and the “hERG current change (%, negative = inhibition) at 1uM” value was 9.31%. For COc1ccc(NC(=O)C(c2ccc(C)cc2)N(C)C(=O)CNC(C)=O)cc1 (stereo not shown), the “hERG current change (%, negative = inhibition) at 1uM” value was -1.11%. In the case of Cc1ccc(-c2nn(-c3ccccc3)cc2C=C2C(=O)CC(C)(C)CC2=O)cc1, the “hERG current change (%, negative = inhibition) at 1uM” value is reported as 6.2%. With CCC(=NCCCN(CC)CC)c1c(O)n(C2CCCCC2)c(=O)[nH]c1=O the “hERG current change (%, negative = inhibition) at 1uM” value was -37.3%. In the case of COc1ccc(S(=O)(=O)NCCOc2ccccc2)cc1-n1cnnn1, the “hERG current change (%, negative = inhibition) at 1uM” value is reported as 5.24%. In the case of Cn1c(N2CCCC2)nc2c1c(=O)n(Cc1cccc(F)c1)c(=O)n2C, the “hERG current change (%, negative = inhibition) at 1uM” value is reported as -5.21%. In the case of C=C(C)C(=O)Nc1cccc(C(C)=O)c1, the “hERG current change (%, negative = inhibition) at 1uM” value is reported as 12.3%. With O=C(CN(C(=O)CCC(=O)Nc1nccs1)c1ccccc1F)NCc1ccccc1 the “hERG current change (%, negative = inhibition) at 1uM” value was 7.67%. With Cc1oc(-c2cccc(Cl)c2)nc1CN1CCCC(C(=O)NCc2ccco2)C1 (stereo not shown) the “hERG current change (%, negative = inhibition) at 1uM” value was -45%. With C=CCNC(=O)COc1ccc(N(C)S(=O)(=O)c2ccc(NC(C)=O)cc2)cc1 the “hERG current change (%, negative = inhibition) at 1uM” value was 11.6%. O=C(NCC1CCCO1)c1ccc(Oc2ccc([N+](=O)[O-])cc2Cl)cc1 (stereo not shown) was tested, and the “hERG current change (%, negative = inhibition) at 1uM” value was 1.67%. COc1ccc(OC)c(CNn2c(-c3ccccc3F)nc3ccccc3c2=O)c1 was tested, and the “hERG current change (%, negative = inhibition) at 1uM” value was 4.44%. For COc1ccc(N2C(=O)c3ccccc3S2(=O)=O)cc1, the “hERG current change (%, negative = inhibition) at 1uM” value was 8.28%.
